Reference: the supplement of paper PMC8728848
This is one part of a sample in which the strongest signals are shown more often than they occur.

Key:
Test in all cases: glycan array binding signal (z-score within array); higher = stronger binding
Conditions in all cases: glycan notation: IUPAC condensed, linker removed
[1] = system: GalNAc(b1-4)GlcNAc(b1-3)GalNAc(b1-4)GlcNAc
In short: (§1)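 The binding signal is a Z-score computed within each array. Data were drawn from 3228 arrays in the Consortium for Functional Glycomics database, restricted to those with a known protein sequence. Scores were averaged over arrays of the same protein sequence at different concentrations or buffers, and over linkers, and negative values can be taken as non-binding.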

Glc(a1-4)Glc = system: Glc(a1-4)Glc
In short: as §1

GlcA(b1-3)Gal = system: GlcA(b1-3)Gal
In short: as §1

GlcA(b1-3)GlcNAc = system: GlcA(b1-3)GlcNAc
In short: as §1

Gal4S(b1-4)GlcNAc = system: Gal4S(b1-4)GlcNAc
In short: as §1

Gal4S6S(b1-4)GlcNAc = system: Gal4S6S(b1-4)GlcNAc
In short: as §1

[2] = system: GalNAc(b1-3)Gal(a1-4)Gal(b1-4)GlcNAc
In short: as §1

GlcA(b1-6)Gal = system: GlcA(b1-6)Gal
In short: as §1

Gal6S(b1-4)GlcNAc = system: Gal6S(b1-4)GlcNAc
In short: as §1

GalNAc(b1-3)GalNAc = system: GalNAc(b1-3)GalNAc
In short: as §1

Gal6S(b1-3)GlcNAc = system: Gal6S(b1-3)GlcNAc
In short: as §1

[3] = system: GalNAc(a1-3)GalNAc(b1-3)Gal(a1-4)Gal(b1-4)GlcNAc
In short: as §1

Gal6S(b1-4)Glc = system: Gal6S(b1-4)Glc
In short: as §1

Gal6S(b1-4)GlcNAc6S = system: Gal6S(b1-4)GlcNAc6S
In short: as §1

[4] = system: GalNAc3S(b1-4)[Fuc(a1-3)]GlcNAc
In short: as §1

GalNAc(a1-3)GalNAc = system: GalNAc(a1-3)GalNAc
In short: as §1

Glc(a1-6)Glc(a1-6)Glc = system: Glc(a1-6)Glc(a1-6)Glc
In short: as §1

Glc(b1-4)Glc = system: Glc(b1-4)Glc
In short: as §1

Gal6S(b1-3)GlcNAc6S = system: Gal6S(b1-3)GlcNAc6S
In short: as §1

Gal6S(b1-4)Glc6S = system: Gal6S(b1-4)Glc6S
In short: as §1

## Thrombomodulin Extracellular (Homo sapiens) (chain not printed)
[1]
  glycan array binding signal (z-score): -0.38
Glc(a1-4)Glc
  glycan array binding signal (z-score): 0.436
GlcA(b1-3)Gal
  glycan array binding signal (z-score): 1.52
GlcA(b1-3)GlcNAc
  glycan array binding signal (z-score): 0.078

## M-Ficolin A256V (Homo sapiens) (chain not printed)
Gal4S(b1-4)GlcNAc
  glycan array binding signal (z-score): -0.163
Gal4S6S(b1-4)GlcNAc
  glycan array binding signal (z-score): -0.124
[2]
  glycan array binding signal (z-score): -0.161

## L-Ficolin (Homo sapiens) (chain not printed)
GlcA(b1-3)GlcNAc
  glycan array binding signal (z-score): -0.399
GlcA(b1-6)Gal
  glycan array binding signal (z-score): 0.4

## Serum Amyloid P component (Homo sapiens) (chain not printed)
Gal4S6S(b1-4)GlcNAc
  glycan array binding signal (z-score): 1.24
Gal6S(b1-4)GlcNAc
  glycan array binding signal (z-score): 0.245
[2]
  glycan array binding signal (z-score): -0.586
Glc(a1-4)Glc
  glycan array binding signal (z-score): -0.311

## Gal 8 long (Homo sapiens) (chain not printed)
GalNAc(b1-3)GalNAc
  glycan array binding signal (z-score): -0.16

## Siglec-2 (Homo sapiens) (chain not printed)
Gal4S(b1-4)GlcNAc
  glycan array binding signal (z-score): -0.218
GlcA(b1-3)GlcNAc
  glycan array binding signal (z-score): -0.205

## Gal 8-short (Homo sapiens) (chain not printed)
Gal4S6S(b1-4)GlcNAc
  glycan array binding signal (z-score): -0.505
GlcA(b1-6)Gal
  glycan array binding signal (z-score): -0.703

## FGF2 (chain not printed)
Gal6S(b1-3)GlcNAc
  glycan array binding signal (z-score): 0.046
[3]
  glycan array binding signal (z-score): -0.347

## M-Ficolin Y271F (Homo sapiens) (chain not printed)
Gal6S(b1-4)Glc
  glycan array binding signal (z-score): 0.18

## Meso764 (Homo sapiens) (chain not printed)
Gal4S(b1-4)GlcNAc
  glycan array binding signal (z-score): 0.093
Gal6S(b1-4)GlcNAc6S
  glycan array binding signal (z-score): 0.456
[4]
  glycan array binding signal (z-score): -0.535

## VWF (Homo sapiens) (chain not printed)
GalNAc(a1-3)GalNAc
  glycan array binding signal (z-score): 6.14
[2]
  glycan array binding signal (z-score): -0.296

## Gal 3 (Homo sapiens) (chain not printed)
Gal6S(b1-3)GlcNAc
  glycan array binding signal (z-score): -0.071
Gal6S(b1-4)GlcNAc
  glycan array binding signal (z-score): -0.122

## Galectin-8 C-terminal CRD (Homo sapiens) (chain not printed)
Gal4S(b1-4)GlcNAc
  glycan array binding signal (z-score): -0.232
GlcA(b1-6)Gal
  glycan array binding signal (z-score): -0.345

## Angiogenin (Homo sapiens) (chain not printed)
Glc(a1-6)Glc(a1-6)Glc
  glycan array binding signal (z-score): 3.12
Glc(b1-4)Glc
  glycan array binding signal (z-score): 0.669

## MBP (Homo sapiens) (chain not printed)
Gal6S(b1-3)GlcNAc6S
  glycan array binding signal (z-score): -0.405
Glc(a1-6)Glc(a1-6)Glc
  glycan array binding signal (z-score): -0.249

## NCAM1 (Homo sapiens) (chain not printed)
Gal6S(b1-4)GlcNAc6S
  glycan array binding signal (z-score): 1.63
GlcA(b1-3)GlcNAc
  glycan array binding signal (z-score): 5.9

## M-Ficolin (Homo sapiens) (chain not printed)
Gal6S(b1-4)Glc
  glycan array binding signal (z-score): -0.149
GlcA(b1-3)Gal
  glycan array binding signal (z-score): -0.283

## CLEC-2 (Homo sapiens) (chain not printed)
Gal6S(b1-4)Glc6S
  glycan array binding signal (z-score): 1.56

## M-Ficolin G221F (Homo sapiens) (chain not printed)
Gal4S(b1-4)GlcNAc
  glycan array binding signal (z-score): -0.157
